In PMC10499876:
No constants are given. Whether binding was seen depends on the method and setting. For some of these results: Binding seen in cells or lysates may run through a third protein. Some binding calls cover weakened binding; strength is not graded here. Tags and fused reporters may be left off the sequences shown.

Sequences of proteins named here, by UniProt entry; tags and fusion partners are left off.
UniProt Q38836: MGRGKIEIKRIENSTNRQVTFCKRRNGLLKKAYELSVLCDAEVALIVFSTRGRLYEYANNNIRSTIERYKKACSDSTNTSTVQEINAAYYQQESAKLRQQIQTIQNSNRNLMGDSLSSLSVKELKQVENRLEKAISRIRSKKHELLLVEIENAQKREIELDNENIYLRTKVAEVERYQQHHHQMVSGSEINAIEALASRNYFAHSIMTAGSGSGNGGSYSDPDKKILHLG
UniProt P17839: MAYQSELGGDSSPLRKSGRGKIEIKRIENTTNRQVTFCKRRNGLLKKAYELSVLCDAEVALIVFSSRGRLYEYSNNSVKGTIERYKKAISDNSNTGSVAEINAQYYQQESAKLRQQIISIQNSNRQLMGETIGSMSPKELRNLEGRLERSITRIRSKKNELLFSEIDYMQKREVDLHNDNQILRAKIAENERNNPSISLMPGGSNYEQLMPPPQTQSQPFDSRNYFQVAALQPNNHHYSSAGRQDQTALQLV
UniProt O22456: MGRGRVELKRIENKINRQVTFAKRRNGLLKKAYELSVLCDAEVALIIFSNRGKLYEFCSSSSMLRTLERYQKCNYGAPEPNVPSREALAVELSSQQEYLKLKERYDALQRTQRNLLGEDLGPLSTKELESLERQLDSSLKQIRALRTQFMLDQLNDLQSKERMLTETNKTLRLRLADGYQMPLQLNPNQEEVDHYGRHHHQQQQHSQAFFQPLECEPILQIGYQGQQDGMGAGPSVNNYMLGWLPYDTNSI

Assays:
[1] = target: … (STK), yeast two-hybrid bait (Arabidopsis) (UniProt Q38836); assay: two-hybrid; bait in pDEST32 (DBD), prey in pDEST22 (AD), S. cerevisiae AH109; growth on SD-Leu-Trp-His with 2.5 mM 3-amino-1,2,4-triazole, 10-, 100- and 1,000-fold dilutions
[2] = target: T1, BELL1 (BEL1), full length, yeast two-hybrid bait (Arabidopsis) (UniProt Q38897); assay: as above
T1 sequence: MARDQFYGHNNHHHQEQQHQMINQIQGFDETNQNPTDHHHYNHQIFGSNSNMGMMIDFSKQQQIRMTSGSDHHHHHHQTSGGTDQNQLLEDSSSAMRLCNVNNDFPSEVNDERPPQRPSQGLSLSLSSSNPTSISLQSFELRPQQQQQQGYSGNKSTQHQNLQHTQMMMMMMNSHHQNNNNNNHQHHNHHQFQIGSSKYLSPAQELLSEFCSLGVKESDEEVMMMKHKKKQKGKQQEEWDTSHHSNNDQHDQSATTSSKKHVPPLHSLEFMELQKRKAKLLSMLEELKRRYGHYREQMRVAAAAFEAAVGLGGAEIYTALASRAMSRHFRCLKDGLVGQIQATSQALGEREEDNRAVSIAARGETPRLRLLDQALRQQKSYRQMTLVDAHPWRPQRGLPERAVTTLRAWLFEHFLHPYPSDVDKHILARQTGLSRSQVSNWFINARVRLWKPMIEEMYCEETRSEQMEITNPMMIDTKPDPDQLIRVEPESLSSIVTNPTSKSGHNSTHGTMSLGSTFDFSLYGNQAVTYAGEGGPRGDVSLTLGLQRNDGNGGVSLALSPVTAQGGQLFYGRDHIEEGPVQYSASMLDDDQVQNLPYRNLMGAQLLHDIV

[3] = target: AGAMOUS (AG), full length, yeast two-hybrid bait (Arabidopsis) (UniProt P17839); assay: as above
[4] = target: …3 (SEP3), full length, yeast two-hybrid bait (Arabidopsis) (UniProt O22456); assay: as above
[5] = target: AG-SEP3 complex (AG with a luciferase half, co-expressed with untagged 35S-SEP3) (Arabidopsis) (UniProt P17839+O22456); assay: split reporter; LCI in tobacco leaves; the luciferase halves on AG and on BEL1, 35S-SEP3 co-expressed, with or without mTCP4-MYC; 22 °C, or 28 °C for 4 hr (signal increased with mTCP4-MYC, weakened at 28 °C)

B1: TCP4 (yeast two-hybrid prey, activation domain fusion) (protein, UniProt Q8LPR5 1-420)
chain: MSDDQFHHPPPPSSMRHRSTSDAADGGCGEIVEVQGGHIVRSTGRKDRHSKVCTAKGPRDRRVRLSAHTAIQFYDVQDRLGFDRPSKAVDWLIKKAKTSIDELAELPPWNPADAIRLAAANAKPRRTTAKTQISPSPPPPQQQQQQQQLQFGVGFNGGGAEHPSNNESSFLPPSMDSDSIADTIKSFFPVIGSSTEAPSNHNLMHNYHHQHPPDLLSRTNSQNQDLRLSLQSFPDGPPSLLHHQHHHHTSASASEPTLFYGQSNPLGFDTSSWEQQSSEFGRIQRLVAWNSGGGGGATDTGNGGGFLFAPPTPSTTSFQPVLGQSQQLYSQRGPLQSSYSPMIRAWFDPHHHHQSISTDDLNHHHHLPPPVHQSAIPGIGFASGEFSSGFRIPARFQGQEEEQHDGLTHKPSSASSISRH
For B1, the binding [1] was “no binding”, the binding [2] was “binds” and the binding [3] was “binds”. The binding [4] was “binds”.

B2: TCP18 (yeast two-hybrid prey, activation domain fusion) (protein, UniProt A1YKT1 1-433)
chain: MNNNIFSTTTTINDDYMLFPYNDHYSSQPLLPFSPSSSINDILIHSTSNTSNNHLDHHHQFQQPSPFSHFEFAPDCALLTSFHPENNGHDDNQTIPNDNHHPSLHFPLNNTIVEQPTEPSETINLIEDSQRISTSQDPKMKKAKKPSRTDRHSKIKTAKGTRDRRMRLSLDVAKELFGLQDMLGFDKASKTVEWLLTQAKPEIIKIATTLSHHGCFSSGDESHIRPVLGSMDTSSDLCELASMWTVDDRGSNTNTTETRGNKVDGRSMRGKRKRPEPRTPILKKLSKEERAKARERAKGRTMEKMMMKMKGRSQLVKVVEEDAHDHGEIIKNNNRSQVNRSSFEMTHCEDKIEELCKNDRFAVCNEFIMNKKDHISNESYDLVNYKPNSSFPVINHHRSQGAANSIEQHQFTDLHYSFGAKPRDLMHNYQNMY
B2 was tested, and the binding [1] was “no binding”, the binding [3] was “binds” and the binding [4] was “binds”.

B3: BEL1 fused with a luciferase half (35Spro-BEL1-nLUC by the methods) (protein, UniProt Q38897 1-611)
chain: MARDQFYGHNNHHHQEQQHQMINQIQGFDETNQNPTDHHHYNHQIFGSNSNMGMMIDFSKQQQIRMTSGSDHHHHHHQTSGGTDQNQLLEDSSSAMRLCNVNNDFPSEVNDERPPQRPSQGLSLSLSSSNPTSISLQSFELRPQQQQQQGYSGNKSTQHQNLQHTQMMMMMMNSHHQNNNNNNHQHHNHHQFQIGSSKYLSPAQELLSEFCSLGVKESDEEVMMMKHKKKQKGKQQEEWDTSHHSNNDQHDQSATTSSKKHVPPLHSLEFMELQKRKAKLLSMLEELKRRYGHYREQMRVAAAAFEAAVGLGGAEIYTALASRAMSRHFRCLKDGLVGQIQATSQALGEREEDNRAVSIAARGETPRLRLLDQALRQQKSYRQMTLVDAHPWRPQRGLPERAVTTLRAWLFEHFLHPYPSDVDKHILARQTGLSRSQVSNWFINARVRLWKPMIEEMYCEETRSEQMEITNPMMIDTKPDPDQLIRVEPESLSSIVTNPTSKSGHNSTHGTMSLGSTFDFSLYGNQAVTYAGEGGPRGDVSLTLGLQRNDGNGGVSLALSPVTAQGGQLFYGRDHIEEGPVQYSASMLDDDQVQNLPYRNLMGAQLLHDIV
With B3 the binding [5] was “binds”.

B4: TCP16 (yeast two-hybrid prey, activation domain fusion) (protein, UniProt Q9M1U4 1-165)
chain: MDSKNGINNSQKARRTPKDRHLKIGGRDRRIRIPPSVAPQLFRLTKELGFKTDGETVSWLLQNAEPAIFAATGHGVTTTSNEDIQPNRNFPSYTFNGDNISNNVFPCTVVNTGHRQMVFPVSTMTDHAPSTNYSTISDNYNSTFNGNATASDTTSAATTTATTTV
For B4, the binding [3] was “no binding” and the binding [4] was “no binding”.
